# Source: PubChem BioAssay AID686978 (National Center for Advancing Translational Sciences (NCATS), 2013)
# Several values for one entry are separate records, joined by “and”; a condition that tells them apart may be missing. Equal values may be shown once. The whole screen tested about 420,000 compounds, of which about 64,000 (15%) were called active. The inconclusive results got no clear call from the source; some entries with a clear call stand among them for comparison. Calls come from the whole dose curve; as a rule, active = well fitted inhibition curve with a large enough effect; inconclusive = small, poorly fitted or top-dose-only effect; inactive = flat fitted curve, though single readings scatter. A potency beside an inconclusive call is a rough fit, not a confirmed value.
# Assay: qHTS for Inhibitors of human tyrosyl-DNA phosphodiesterase 1 (TDP1): qHTS in cells in absence of CPT; note: nearly all actives have a fitted effect of over 55% in size
# Details: DT40 Tdp1-/- hTDP1 cells, no CPT, ATP luminescence, 48 h; activity change, negative = growth inhibition: at 46.2 µM (top of the series) unless noted
# Procedure, shortened: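 No-CPT arm: Tdp1-/-;hTDP1 DT40 cells (400/well) plus compounds, incubated ≥48 hr at 37 °C. Readout CellTiter-Glo luminescence.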
# % is set by controls: 0 for no effect and ±100 for the full control effect; potency is the fitted concentration of half-maximal effect; tags give direction and shape of the fitted curve.
Structure (SMILES),Potency,"activity change, negative = growth inhibition"
CCc1nnc(NS(=O)(=O)c2ccc(NCc3cc(Cl)ccc3O)cc2)s1,inactive,–
O=C1c2ccccc2C(=O)c2c1cccc2N(CCO)CCO,inactive,–
CC1C/C(=N\NC(N)=S)c2cc(Cl)ccc2S1 (stereo not given),–,inconclusive: -30.4% [inhibitor]
CCOC(=O)CSc1nnc(NC(=O)c2cc([N+](=O)[O-])cc([N+](=O)[O-])c2)s1,"inconclusive: 29.1 µM [inhibitor, single point]",–
O=C(COC(=O)c1ccc2c(c1)C(=O)N(Cc1ccco1)C2=O)NCC(F)(F)F,inactive,–
COc1ccc(NC(=O)CSc2nc(-c3cc(OC)c(OC)c(OC)c3)[nH]c2-c2ccc(F)cc2)cc1,active: 23.1 µM,–
COc1cccc(NC(=O)[C@@H]2CCCN2S(=O)(=O)c2cccc3cccnc23)c1,"inconclusive: 29.1 µM [inhibitor, single point]",–
COCCN(CCOC)S(=O)(=O)c1ccc(/C(O)=C(\C#N)c2nc3ccccc3[nH]2)cc1,inactive,–
CC(=O)Oc1cccc(C(=O)Nc2ccc(NC(=O)c3cccs3)cc2)c1,"inconclusive: 23.1 µM [inhibitor, single point]",–
CCc1ccc(S(=O)(=O)Nc2ccncc2)cc1,inactive,–
O=C(CCN1C(=O)/C(=C/c2ccccc2)SC1=S)NNC(=O)c1cccnc1,"inconclusive: 23.1 µM [inhibitor, single point]",–
Nc1nc(-c2cccc(F)c2)cs1,inactive,–
Cc1ccc(Nc2cc(C(=O)NCCc3ccccc3)c3ccccc3n2)c(C)c1,"inconclusive: 11.6 µM [inhibitor, partial curve]",–
O=C(c1nnsc1S(=O)c1ccc(Cl)cc1)N1CCOCC1 (stereo not given),active: 0.82 µM,–
C=CCn1c(SCC(=O)N2CCc3ccccc3C2)nc2sc(CC)cc2c1=O,"inconclusive: 20.6 µM [inhibitor, partial curve]",–
O=C(COc1ccccc1C(=O)O)Nc1nc2ccc([N+](=O)[O-])cc2s1,inactive,–
CC(=O)c1ccc(C(=O)Nc2ccc3c(c2)C(=O)NC3=O)cc1,inactive,–
COC(=O)C[C@H]1C=C[C@@H](NC(=O)Nc2c(C)noc2C)[C@@H](CO)O1,inactive,–
CCCOC(=O)c1cccc(NC(=O)c2c(-c3ccccc3Cl)noc2C)c1,active: 7.31 µM,–
Cc1[nH]nc2c1C1(C(=O)N(Cc3ccc(Cl)cc3)c3ccccc31)C(C#N)=C(N)O2 (stereo not given),active: 25.9 µM,–
O=C(Cn1nc(-c2ccc(Cl)cc2)c2ccccc2c1=O)Nc1cccc(Br)c1,inactive,–
Cc1ccc(C(=O)N/C(=C/c2ccc(-c3cccc([N+](=O)[O-])c3)o2)C(=O)NC(C)C)cc1,"inconclusive: 23.1 µM [inhibitor, single point]",–
CCOC(=O)C1=C(C)N(C)C(C)=C(C(=O)OCC)C1c1ccccc1,"inconclusive: 29.1 µM [inhibitor, single point]",–
O=[N+]([O-])c1ccccc1S(=O)c1ccccc1[N+](=O)[O-],active: 16.4 µM,–

Structure (SMILES),Potency,"activity change, negative = growth inhibition"
O=C(COn1nnc2ccc(S(=O)(=O)N3CCOCC3)cc21)Nc1c(F)c(F)c(F)c(F)c1F,"inconclusive: 29.1 µM [inhibitor, single point]",–
O=C(Nc1cccc(F)c1)C1CCCN(S(=O)(=O)c2cccc3cccnc23)C1 (stereo not given),active: 23.1 µM,–
Cc1nc2ccc(S(=O)(=O)N(C)CC(=O)Nc3ccc(C(C)C)cc3)cc2s1,"inconclusive: 18.4 µM [inhibitor, single point]",–
Cc1ccccc1Cn1c(COc2ccc(Cl)cc2)nc2ccccc21,active: 13 µM,–
Cc1cccc(C2CN(C)CCc3c2cc(O)c(O)c3Cl)c1 (stereo not given),"inconclusive: 29.1 µM [inhibitor, single point]",–
COc1ccc(CNC(=O)C2CCN(c3nnc(-n4c(C)ccc4C)s3)CC2)c(OC)c1,active: 16.4 µM,–
Cn1c(N)c(C(=O)COC(=O)c2cc(-c3ccccc3)nc3ccccc23)c(=O)n(Cc2ccccc2)c1=O,"inconclusive: 23.1 µM [inhibitor, single point]",–
CCOc1ccc(N(CC(=O)NCCSCc2ccc(C)cc2)S(C)(=O)=O)cc1,"inconclusive: 23.1 µM [inhibitor, single point]",–
Cc1ccc(S(=O)(=O)N2CCN(CCc3ccncc3)CC2)cc1,"inconclusive: 32.6 µM [inhibitor, single point]",–
CC1CCN(c2ccc3c(c2)S(=O)(=O)c2cccc(C(=O)NCc4ccc(F)cc4)c2C3=O)CC1,"inconclusive: 14.6 µM [inhibitor, single point]",–
CCCCN(CCO)c1ncnc2sc(-c3ccccc3)cc12,active: 16.4 µM,–
O=C1C2CC3N1CCC31c3ccccc3-n3c1c2ccc3=O (stereo not given),"inconclusive: 29.1 µM [inhibitor, single point]",–
CCOC(=O)c1c(NC(=O)CSc2nnc(-c3ccc(Cl)cc3)o2)sc2c1CCC2,"inconclusive: 1.3 µM [inhibitor, full curve]",–
COCCCNC(=O)Cn1c(=O)n(CC(=O)N2CCCCC2)c(=O)c2sccc21,inactive,–
O=c1c2cc3c(cc2nc2sc(Nc4ccccc4)nn12)OCO3,"inconclusive: 1.03 µM [inhibitor, partial curve]",–
COc1ccc(NC(=O)CN2CCN(CC(=O)Nc3ccccc3F)CC2)c(OC)c1,"inconclusive: 29.1 µM [inhibitor, single point] and inconclusive: 18.4 µM [inhibitor, single point]",–
O=C(NCc1cccnc1)NC(=O)c1ccc(Cl)cc1,"inconclusive: 25.9 µM [inhibitor, single point]",–
FC(F)(F)c1cnc(C(c2ccccn2)c2ncn[nH]2)c(Cl)c1 (stereo not given),"inconclusive: 29.1 µM [inhibitor, single point]",–
Nc1nnc(SCC(=O)NCCOc2ccccc2)s1,inactive,–
CC(C)N(C(=O)[C@H]1C[C@H](CC(=O)NCCc2ccccn2)C(=O)N2CCc3c([nH]c4cc(CCC(=O)N(C)C)ccc34)[C@]12C)C(C)C,inactive,–
Cn1cnc2cc(NS(=O)(=O)c3ccc(Br)cc3)ccc21,"inconclusive: 29.1 µM [inhibitor, single point]",–
COc1ccc(S(=O)(=O)N=C2C=C(C)C(=O)C(C)=C2)cc1,active: 20.6 µM,–
COc1cc(CNn2nnnc2N)ccc1OCc1c(Cl)cccc1Cl,"inconclusive: 16.4 µM [inhibitor, single point]",–
CC(C)CNS(=O)(=O)c1ccc(CCC(=O)Nc2cc(Cl)ccc2Oc2ccccc2)cc1,"inconclusive: 18.4 µM [inhibitor, single point]",–

Structure (SMILES),Potency,"activity change, negative = growth inhibition"
CC(C)N(CCCNC(=O)C1CCC(CNS(=O)(=O)c2ccccc2)CC1)Cc1ccccc1 (stereo not given),"inconclusive: 16.4 µM [inhibitor, partial curve]",–
Cc1ccc(Nc2nc(-c3ccncc3)cs2)cc1,"inconclusive: 16.4 µM [inhibitor, partial curve]",–
COc1ccc(NC(=O)c2ccc3c(=O)n4c(nc3c2)CCCCC4)cc1,"inconclusive: 16.4 µM [inhibitor, single point]",–
CSc1ccccc1NC(=O)C(C)N1C(=O)c2ccccc2S1(=O)=O (stereo not given),inactive,–
CCSCCOC(=O)C1=C(C)N(C)C(=O)NC1c1cc(OC)ccc1OC (stereo not given),"inconclusive: 14.6 µM [inhibitor, partial curve]",–
O=C(NCc1ccc2c(c1)OCO2)c1c(O)nc2sccn2c1=O,"inconclusive: 29.1 µM [inhibitor, single point]",–
O=C(NCCCN1CCCC1)[C@H](CSCc1ccccc1)N1Cc2ccccc2C1=O,active: 29.1 µM,–
O=C(Nc1ccccc1)c1cc(S(=O)(=O)Nc2cccnc2)ccc1Cl,inactive,–
COc1ccccc1NC(=O)Nc1sccc1-c1nc2ccccc2s1,"inconclusive: 23.1 µM [inhibitor, single point]",–
CCc1ccc(CN(C)CC(=O)Nc2ccc3c(c2)CCC3)cc1,"inconclusive: 29.1 µM [inhibitor, single point]",–
CCN(c1ccccc1)S(=O)(=O)c1c(C)nc2scc(C)n2c1=O,inactive,–
COc1cccc(-c2nc3c(c(SCC(=O)N4CCOCC4)n2)Cc2c(CO)cnc(C)c2O3)c1,active: 4.11 µM,–
COC(=O)c1ccc(NC(=O)CSc2cn(CC(=O)N3CCCCC3)c3ccccc23)cc1,"inconclusive: 18.4 µM [inhibitor, single point]",–
S=C1N(c2ccccc2)C(c2ccccc2)N2CCCN12 (stereo not given),inactive,–
Cc1ccc(NC(=O)CN(C)C(C)C(=O)N2CC(C)CC(C)C2)cc1 (stereo not given),"inconclusive: 29.1 µM [inhibitor, single point]",–
CCOC(=O)c1c(C)oc2nc(C)nc(NCCc3ccc(OCC)c(OCC)c3)c12,active: 13 µM,–
O=C(N/N=C/c1c[nH]c2ccccc12)c1sc2ccccc2c1Cl,"inconclusive: 29.1 µM [inhibitor, single point]",–
Cc1cc(C)c(C(=O)CSc2nnc(N)s2)cc1C,"inconclusive: 29.1 µM [inhibitor, single point]",–
CCC(CO)Oc1cc(NC(=O)c2cccc([N+](=O)[O-])c2)c2ncn(C(C)C)c2c1 (stereo not given),"inconclusive: 20.6 µM [inhibitor, single point]",–
COc1ccc(CC(=O)Nc2ccc(S(=O)(=O)N3CCCC3)cc2)c(OC)c1,inactive,–
O=C(Nc1ccc(O)c(-c2nc3ccccc3o2)c1)C1(c2ccc(Cl)cc2)CCCC1,"inconclusive: 29.1 µM [inhibitor, single point]",–
CC1(C)Cc2c(c(N3CCCC3)nc3sc4c(N5CCNCC5)ncnc4c23)CO1,"inconclusive: 23.1 µM [inhibitor, single point]",–
